According to PubChem BioAssay AID1963576 (National Center for Advancing Translational Sciences (NCATS), 2024):
Screen size: about 46,000 compounds; about 60 (0.1%) were called active. About 3% were inconclusive and are not listed. The call rests on the fitted dose curve; in most records, active means well fitted inhibition curve with a large enough effect; inconclusive means small, poorly fitted or top-dose-only effect; inactive means no such curve, though single readings can be large or run the other way. The list shows a part of the results.

assay: Primary qHTS assay for Inhibitors of ovarian cancer metastasis using an organotypic tumor microenvironment (TME) model.; further: nearly all actives have a fitted effect of over 65% in size;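 on activity change, negative = inhibition: plate controls were DMSO wells for no effect and tomatine positive control wells for full effect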; conditions: SKOV3ip1-GFP adhesion/invasion on 3D omental model, fluorescence; series mostly up to 45.8 µM; activity change, negative = inhibition: at the top concentration
How it was run: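 qHTS, 4-pt dose (0.36-46 umol/L); SKOV3ip1-GFP, 1,200 cells/well, no FBS; primary omental fibroblast/mesothelial co-culture 48 h pre-grown; 2 h RT + 16 h 37 C; PBS wash, 4% PFA; GFP count 488/509 nm.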

Activity change, negative = inhibition, inactive:
COc1cccc(C(=O)N2c3ncnn3C3(CCCCC3)[C@@H]3CCCC[C@@H]32)c1 9.55%
CC(=O)N1CCc2cc(Br)cc(S(=O)(=O)N3CCC(C(=O)Nc4ccc(C(C)C)cc4)CC3)c21 9.37%
COc1ccc(C)cc1NC(=O)Nc1cccc(OCc2cc(=O)n3ccc(C)cc3n2)c1 -7.57%
Cn1ncc2c(N3CCN(c4ccccc4F)CC3)ncnc21 7.02%
Cc1ccccc1OCC(=O)NCC(c1ccc(Cl)cc1)N1CCCCC1 (centres undefined) 1.63%
CN(Cc1ccccc1)S(=O)(=O)c1ccc(NC(=O)c2cc(=O)c3ccccc3o2)cc1 9.78%
Cc1ccccc1NC(=O)Cn1c(=O)n(CCc2ccccc2)c(=O)c2ccccc21 47.3%
COc1ccc(OC)c(Nc2sc(C(=O)c3ccccc3)c(N)c2S(=O)(=O)c2ccccc2)c1 -0.726%
COc1ccc(C(=O)COC(=O)c2cc(-c3cccs3)nc3ccccc23)cc1 0.94%
O=C(Cn1ncc2c([nH]c3ccccc32)c1=O)NCCCN1CCN(c2ccccc2)CC1 -4.61%
O=c1oc2ccccc2c(N2CCN(c3ccc(F)cc3)CC2)c1CN1CCCC1 -8.16%
Cc1c(Cl)cccc1-n1ncc(C(=O)NC2CCCCC2)c1C1CCN(C(=O)OC(C)(C)C)CC1 3.36%
CCCCn1cc(S(=O)(=O)c2cc(C)ccc2C)c(=O)c2cc(F)c(F)cc21 1.19%
CC(C(=O)Nc1ccc(OC(F)(F)F)cc1)N1Cc2ccccc2C1=O (centres undefined) -19.3%
COc1ccc(CNC(=O)C(C)n2nc(C)c3c(C)n(-c4ccccc4)nc3c2=O)c(OC)c1 (centres undefined) -27.8%
CCc1nn2c(=O)cc(COC(=O)c3ccccc3NC(=O)COc3ccc(C)c(C)c3)nc2s1 20.7%
Cc1ccc(C)c(N2CCN(CCCNC(=O)c3cnn(-c4ccc(F)cc4)c3C3CCN(C(=O)OC(C)(C)C)CC3)CC2)c1 -15.1%
C#CCn1c(=O)n(-c2cccc(Cl)c2C)c(=O)c2c3c(sc21)CN(C(C)=O)CC3 -0.569%
Cc1ccc(C)c(CSc2nnc(C)n3c2cc2sccc23)c1 -5.88%
CC(=O)c1ccc(-n2c(CCC(=O)O)ccc2-c2cccs2)cc1 5.54%
CCOc1ccc(CNC(=O)Cn2nc(C)c3c(C)n(-c4ccc(C)cc4)nc3c2=O)cc1 10.4%
Cc1noc(/C=C/c2ccccc2F)c1S(=O)(=O)N1CCC(C(=O)NCC(C)c2ccccc2)CC1 (centres undefined) 1.66%
COc1cc(NC(=O)C(Cc2ccccc2)NS(=O)(=O)c2cccs2)cc(OC)c1 (centres undefined) 14.5%
O=C(CS(=O)(=O)c1cccc2nsnc12)NCc1ccccc1 -0.836%
COc1cc(OC)c(NC2=C(c3ccc(C(F)(F)F)cc3)C(=O)c3ccccc32)cc1Cl -7.26%
O=C(Cn1c(=O)nc(-c2ccccc2)c2ccccc21)N1CCN(c2ccc(F)cc2)CC1 -5.78%
O=C(O)CSc1nc2ccc(NC(=O)COc3ccc(Cl)cc3)cc2s1 -13.4%
Cc1ccc(-n2c(=O)c3c(c4cc(C)ccc4n3C)n(CC(=O)c3ccc(Cl)cc3)c2=O)cc1 25.1%
CCOc1cccc(C(=O)Nc2cc(C)c(O)c(-c3nc4ncccc4o3)c2)c1 3.82%
Cc1ccc2c(=O)c(C(=O)c3ccc(F)cc3)cn(CC(=O)Nc3ccc4c(c3)OCCO4)c2n1 2.35%
Cc1ccc(NC(=O)c2ccc(CN3CC(=O)N4CCCCC4C3=O)cc2)c(C)c1 (centres undefined) 10.2%
Cc1c(NC(=O)C(C)(C)Oc2ccc(Cl)cc2)cccc1-c1nc2ccccc2o1 -0.0792%
O=C(c1ccc2c(c1)N(Cc1ccccc1)C(=O)c1ccccc1S2(=O)=O)N1CCc2ccccc21 -3.07%
COc1ccc(OC)c(-n2c3c(cc(-c4nc(-c5ccc(Cl)cc5)cs4)c2=O)C(=O)CC(C)(C)C3)c1 16.8%
CCCNC(=O)CN1C(=O)COc2ccc(S(=O)(=O)N3CCC(C)CC3)cc21 -11.2%
O=C(CSc1nccn1C1CCCC1)Nc1cc(C(F)(F)F)ccc1Cl 3.26%
CCOC(=O)c1c(NC(=O)c2cc(=O)c3cc(C)cc(C)c3o2)sc(C)c1C -3.27%
O=S(=O)(c1ccc(Cl)cc1)c1nc(-c2ccco2)oc1SCc1ccccc1F 3.89%
COC[C@H](NC(=O)c1cnc(C)s1)C(=O)N[C@@H](COC)C(=O)N[C@@H](Cc1ccccc1)C(=O)[C@@]1(C)CO1 -9.36%
CN(C(=O)CSc1nnc(COc2ccccc2)o1)c1ccccc1 -0.481%
CCC(=O)N1CCc2cc(S(=O)(=O)NC(Cc3ccccc3)C(=O)Nc3ccccc3C)ccc21 (centres undefined) 0.812%
O=C(Nc1sc2c(c1C(=O)Nc1ccccc1)CCC2)c1ccc(Br)cc1 11.6%

outcome, inactive:
CCOC(=O)c1ccc(-n2c(CCC(=O)O)ccc2-c2ccccc2)cc1
COc1ccc(C(=O)CC2(O)C(=O)N(Cc3cccc(C(F)(F)F)c3)c3ccccc32)cc1 (centres undefined)
CCOc1ccc(/C=C/c2nc(C#N)c(NC(C)c3ccccc3)o2)cc1 (centres undefined)
CCc1cccc(C)c1NC(=O)CN1C(=O)C2(SCC(=O)N2c2cccc(F)c2)c2ccccc21 (centres undefined)
CCOc1ccc(CCNC(=O)CSc2nnnn2-c2ccccc2)cc1OCC
COc1ccc(Br)cc1[C@@H]1Nc2ccc(C(=O)O)cc2[C@@H]2C=CC[C@@H]21
CCOC(=O)c1cccc(NC(=O)c2oc3c(c2C)-c2nn(CC)cc2CC3)c1
Cc1oc(-c2ccccc2F)nc1CN1CCC(C(=O)NCCc2ccccc2)CC1
COc1ccc(-c2cnc(C)o2)cc1S(=O)(=O)Nc1ccc(OC(F)(F)F)cc1
CC(C)C(=O)Nc1nc2c(s1)CC(C(C)(C)C)CC2 (centres undefined)
OCCCn1c(-c2ccc(F)cc2)csc1=Nc1ccc(F)cc1
CC(C)Oc1ccccc1NC(=O)CSc1nccn1C
COc1cccc(Cc2nc3ccccc3nc2SCC(=O)N2CCCc3ccccc32)c1
COC(=O)c1ccccc1NC(=O)c1nc(-c2ccc(Cl)cc2)n2c1CCCCC2
COC(=O)c1ccc(NC(=O)CSc2nnc3c4ccccc4n(C(C)C)c3n2)cc1
Cc1ccc(-c2nn(CC(=O)NCc3ccccc3)c3c2cnc2ccc(F)cc23)cc1C
COc1ccccc1CNC(=O)CSc1ccc(-c2sc(-c3ccccc3)nc2C)nn1
